# ± gives the standard deviation of the averaged measurements. In all, about 33,000 sequences were measured (“E-score (dimensionless, -0.5 to 0.5)”: median about -0.046, highest 2% from about 0.36 on). This is one part of the list.
# System: T1, SpTbr T-box DNA-binding domain (GST fusion)
# T1 sequence: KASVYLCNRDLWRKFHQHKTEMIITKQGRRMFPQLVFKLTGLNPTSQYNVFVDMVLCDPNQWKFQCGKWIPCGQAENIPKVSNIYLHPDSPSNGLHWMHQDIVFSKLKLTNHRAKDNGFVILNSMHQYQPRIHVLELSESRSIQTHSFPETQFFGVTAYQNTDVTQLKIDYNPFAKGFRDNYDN
# Experiment: PBM E-score of 8-mer (E-score (dimensionless, -0.5 to 0.5)); Tbr is Tbrain of the sea star Patiria miniata (Pm) or the sea urchin Strongylocentrotus purpuratus (Sp); higher = stronger binding preference; most listed sequences are background and not binding sites
# Details: the construct has about 5 more residues each side
# Summary of the method: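 Universal Agilent oligonucleotide arrays, made double-stranded by primer extension, were incubated with 200 nM GST-fused Tbr T-box DNA-binding domain in PBS (pH 7.5). The protein was expressed in BL21 E. coli at 20 °C and purified by glutathione affinity chromatography. After scanning and quantification, the Universal PBM Analysis Suite assigned an enrichment E-score to each ungapped 8-mer, averaged over duplicate arrays.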
row,Sequence,PBM E-score of 8-mer
1,AAATGGCT,-0.1719 ± 0.00018
2,ATTCAATG,-0.228 ± 0.079
3,AAGGTTAC,-0.189 ± 0.047
4,ATCGTCTC,-0.134 ± 0.063
5,ACTACTAC,-0.0581 ± 0.073
6,TGCATGCA,-0.274 ± 0.17
7,AGCTCGTA,-0.0781 ± 0.067
8,CCAGCCAA,0.0172 ± 0.056
9,AGCTCACT,-0.118 ± 0.0042
10,AGTTCGTG,0.113 ± 0.0049
11,CGTTGCTA,0.115 ± 0.018
12,CTTAACGA,0.0844 ± 0.03
13,CGTGTTGA,0.3014 ± 0.0019
14,AGCTATCG,0.068 ± 0.035
15,CGCGGCAA,0.188 ± 0.07
16,GTACTTGA,0.0232 ± 0.044
17,CCTCGTAG,-0.0741 ± 0.019
18,ACTACATG,-0.132 ± 0.059
19,ATTTCATA,-0.115 ± 0.043
20,GTCAGGCA,-0.0329 ± 0.013
21,ACAAAGAG,0.106 ± 0.056
22,CAGTCGGC,-0.0473 ± 0.027

row,Sequence,PBM E-score of 8-mer
1,CGGATACG,-0.144 ± 0.05
2,ATCTACGG,-0.311 ± 0.013
3,CAGTGATG,-0.0355 ± 0.029
4,AAAAAATC,0.0781 ± 0.012
5,GGGGGGAC,-0.343 ± 0.021
6,CCGCTGAG,-0.122 ± 0.0067
7,ACTTGGAC,-0.1 ± 0.016
8,ACCTTCTC,0.0327 ± 0.019
9,ACCTGCCG,0.201 ± 0.033
10,AGACATAG,-0.184 ± 0.0073
11,TCAATGAA,-0.0588 ± 0.01
12,ATTGCGCC,0.122 ± 0.039
13,AGCGGCTA,0.0595 ± 0.043
14,AGAACACA,0.133 ± 0.0034
15,AGGTTAGC,0.0718 ± 0.021
16,CTATGTGA,0.204 ± 0.051
17,CGAACATA,-0.0411 ± 0.028
18,CAGTCAAG,-0.00898 ± 0.0034
19,GGATCCCA,-0.177 ± 0.0037
20,GCACCTAC,0.352 ± 0.025
21,TAGACCAA,-0.0737 ± 0.039
22,AGGAGTAC,-0.0172 ± 0.035

row,Sequence,PBM E-score of 8-mer
1,AATTTTAT,-0.14 ± 0.1
2,CACCATTC,0.278 ± 0.027
3,ACCAATGA,-0.0571 ± 0.11
4,ATAGTTGG,-0.0867 ± 0.072
5,AGTCCGAA,-0.0718 ± 0.043
6,CCCAAGGG,0.0395 ± 0.0075
7,ACCGGGAC,-0.196 ± 0.011
8,GTGACGAA,0.338 ± 0.0048
9,AATAAGAG,-0.0389 ± 0.007
10,TGCGTAAA,0.0514 ± 0.017
11,TATGCTCA,0.0361 ± 0.011
12,ATGTCCAA,-0.344 ± 0.092
13,CCTTGCAA,-0.019 ± 0.12
14,GCTGTGAA,0.4045 ± 0.0013
15,ATTCAAAC,-0.113 ± 0.037
16,ACGGGAGA,-0.238 ± 0.076
17,ACAGGTTA,0.257 ± 0.043
18,CCCAACCA,-0.241 ± 0.01
19,AGTAGTCG,-0.101 ± 0.0026
20,GTTCACCA,0.0816 ± 0.087
21,AATTCATC,-0.1181 ± 0.00098
22,AGCCCCAG,-0.122 ± 0.02

row,Sequence,PBM E-score of 8-mer
1,AATGAGCA,-0.121 ± 0.033
2,GCGAAGAC,0.248 ± 0.045
3,CGTTCTTC,-0.0645 ± 0.052
4,GAAAACCC,-0.145 ± 0.051
5,CGGGCATC,-0.211 ± 0.035
6,GATAATAA,0.189 ± 0.022
7,CGGAAGTA,-0.132 ± 0.06
8,CCCCACCG,-0.0101 ± 0.049
9,GATATTGC,0.0365 ± 0.028
10,GCCGAAGC,-0.173 ± 0.042
11,AGGTGCCG,0.421 ± 0.0055
12,CCGTAGAG,-0.121 ± 0.054
13,CGCTAAAC,0.187 ± 0.1
14,CAGTAAGC,-0.066 ± 0.02
15,ATGCCCAG,-0.115 ± 0.06
16,CCTTATTA,-0.0243 ± 0.021
17,AAGGCATT,-0.129 ± 0.038
18,AAAGGTGT,0.469 ± 0.0063
19,CAGGACTC,-0.29 ± 0.027
20,CCCCAGAG,-0.111 ± 0.021
21,ACCCACTC,-0.0674 ± 0.057
22,AATTGACT,0.00549 ± 0.0029

row,Sequence,PBM E-score of 8-mer
1,ATCGGCCA,-0.177 ± 0.059
2,ACCAGCCA,-0.0622 ± 0.049
3,CACGTACC,0.122 ± 0.031
4,GACGACGC,0.0598 ± 0.1
5,CGTGTCAC,0.362 ± 0.034
6,ATACGTCA,-0.0814 ± 0.086
7,AGCGGTCG,-0.0441 ± 0.11
8,AAACTTGC,0.102 ± 0.0067
9,ATGTTCTA,-0.201 ± 0.013
10,ACCTCCCA,0.177 ± 0.064
11,GACTGACC,-0.206 ± 0.022
12,ACCCACAA,-0.0411 ± 0.0025
13,AGAGCAGC,-0.039 ± 0.051
14,TCCATTCA,-0.0918 ± 0.027
15,CAACTCGG,-0.0571 ± 0.15
16,GACCAATA,-0.123 ± 0.0068
17,AGTGCCAT,0.128 ± 0.061
18,GCACTAGC,0.017 ± 0.027
19,CCGCCCTC,-0.000765 ± 0.13
20,GGCTGCTA,0.0934 ± 0.049
21,CCGTCGGA,-0.253 ± 0.025
22,CAAGTTTC,0.0674 ± 0.016

# Source: the supplement of paper PMC4166925
